According to PMC4336329 (PLoS ONE, 2015):
Hit rate of the full screen: of about 310,000 compounds, about 2,200 (0.71%) showed an effect of 50% or more. The effect is printed as a negative number. Some of the results follow.

biological target: human ether-à-go-go-related gene (hERG) potassium channel (human, UniProt Q12809); experiment: primary screen, population patch clamp on CHO cells stably expressing hERG
Sequence (Q12809 whole entry, looked up): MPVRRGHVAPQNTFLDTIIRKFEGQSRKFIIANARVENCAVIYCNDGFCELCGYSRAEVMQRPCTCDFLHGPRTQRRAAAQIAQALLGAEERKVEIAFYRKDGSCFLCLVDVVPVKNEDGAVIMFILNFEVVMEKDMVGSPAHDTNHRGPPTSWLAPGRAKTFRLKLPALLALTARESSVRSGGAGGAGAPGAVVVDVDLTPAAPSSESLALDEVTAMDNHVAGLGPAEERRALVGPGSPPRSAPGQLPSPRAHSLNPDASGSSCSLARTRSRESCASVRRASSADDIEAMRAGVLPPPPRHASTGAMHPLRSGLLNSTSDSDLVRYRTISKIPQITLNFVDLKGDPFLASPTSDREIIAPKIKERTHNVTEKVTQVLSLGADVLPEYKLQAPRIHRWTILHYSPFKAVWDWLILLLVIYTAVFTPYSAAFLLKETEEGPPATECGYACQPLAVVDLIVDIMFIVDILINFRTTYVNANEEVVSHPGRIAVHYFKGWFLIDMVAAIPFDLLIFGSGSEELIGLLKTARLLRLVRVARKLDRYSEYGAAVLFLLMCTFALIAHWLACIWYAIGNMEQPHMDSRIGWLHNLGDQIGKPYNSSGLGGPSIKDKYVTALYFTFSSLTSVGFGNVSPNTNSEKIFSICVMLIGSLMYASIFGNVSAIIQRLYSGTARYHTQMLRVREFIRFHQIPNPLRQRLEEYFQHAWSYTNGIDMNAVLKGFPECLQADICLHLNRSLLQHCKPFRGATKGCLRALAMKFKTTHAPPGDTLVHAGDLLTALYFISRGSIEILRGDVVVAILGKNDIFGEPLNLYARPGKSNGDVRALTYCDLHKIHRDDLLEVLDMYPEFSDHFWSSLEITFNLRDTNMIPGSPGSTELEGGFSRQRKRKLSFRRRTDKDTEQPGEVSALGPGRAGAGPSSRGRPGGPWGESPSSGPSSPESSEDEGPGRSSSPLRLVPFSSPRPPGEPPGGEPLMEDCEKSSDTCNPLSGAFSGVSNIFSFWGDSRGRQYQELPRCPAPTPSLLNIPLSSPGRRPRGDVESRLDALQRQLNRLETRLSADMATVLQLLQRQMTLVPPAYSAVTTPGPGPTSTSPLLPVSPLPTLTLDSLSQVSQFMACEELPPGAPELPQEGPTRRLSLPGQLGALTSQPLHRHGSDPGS

Q: Which “hERG current change (%, negative = inhibition) at 1uM” value does the source give for `Cc1cc(C)c(NC(=O)CSc2nc3ncc(Br)cc3[nH]2)c(C)c1` here?
A: 17.1%

Q: `O=C(CNC(=O)c1ccc2c(c1)OCCO2)N/N=C/c1ccco1` was tested. Which “hERG current change (%, negative = inhibition) at 1uM” value did it give?
A: 20.1%

Q: How did the “hERG current change (%, negative = inhibition) at 1uM” value turn out when `O=C(NC1CCS(=O)(=O)C1)c1sc2ccccc2c1Cl` (stereo not shown) was run?
A: 8.36%

Q: For `COc1ccccc1NC(=O)NC1(C(=O)N2CCC(O)CC2)CCCCC1`, which “hERG current change (%, negative = inhibition) at 1uM” value is on record?
A: 10.5%

Q: For `COc1ccc(C(=O)c2coc3ccc(O)c(CN4CCCC4)c23)cc1`, which “hERG current change (%, negative = inhibition) at 1uM” value is on record?
A: -56.9%

Q: `NC(=O)NCc1cccnc1` was tested. Which “hERG current change (%, negative = inhibition) at 1uM” value did it give?
A: 9.22%

Q: Which “hERG current change (%, negative = inhibition) at 1uM” value does the source give for `O=C(CNS(=O)(=O)c1ccc(F)c(Cl)c1)NCCc1ccccc1` here?
A: 12.2%

Q: With `O=C(CC1C(=O)NCCN1Cc1ccoc1)NCCc1ccc(Cl)cc1` (stereo not shown) as the molecule, how does the “hERG current change (%, negative = inhibition) at 1uM” value read?
A: -13.3%

Q: With `CSc1ccccc1NC(=O)C1CC(c2ccccc2Cl)=NO1` (stereo not shown) as the molecule, how does the “hERG current change (%, negative = inhibition) at 1uM” value read?
A: 14.2%

Q: How did the “hERG current change (%, negative = inhibition) at 1uM” value turn out when `CCc1ccc(NC(=O)CSc2ccc(-c3ccco3)nn2)cc1` was run?
A: -6.56%

Q: Which “hERG current change (%, negative = inhibition) at 1uM” value does the source give for `Cc1cnc(C)c(N2CCC(C(=O)NCc3cccs3)CC2)n1` here?
A: 0.946%

Q: With `Cc1c[nH]c2ccccc12` as the molecule, how does the “hERG current change (%, negative = inhibition) at 1uM” value read?
A: 13.8%

Q: Which “hERG current change (%, negative = inhibition) at 1uM” value does the source give for `Cc1ccc(NC(=O)Cn2sc3nc(C)cc(C)c3c2=O)c(Cl)c1` here?
A: 10.7%

Q: `CC(C)(C)c1ccc(C(=O)CS(=O)(=O)c2ccccc2)cc1` was tested. Which “hERG current change (%, negative = inhibition) at 1uM” value did it give?
A: -7.9%

Q: For `CCOC(=O)c1cccc(N2C(N)=NC(N)=NC2(C)C)c1.Cl`, which “hERG current change (%, negative = inhibition) at 1uM” value is on record?
A: 12.7%

Q: For `CC1=C(C(=O)Nc2ccccc2)C(c2ccncc2)C(C#N)=C(SCC(=O)NC2CC2)N1` (stereo not shown), which “hERG current change (%, negative = inhibition) at 1uM” value is on record?
A: 6.49%

Q: With `CCOCc1nnc(NC(=O)c2ccco2)s1` as the molecule, how does the “hERG current change (%, negative = inhibition) at 1uM” value read?
A: -13.2%

Q: For `COc1ccc(CCNS(=O)(=O)c2cc3c4c(c2)CCN4C(=O)CC3)cc1`, which “hERG current change (%, negative = inhibition) at 1uM” value is on record?
A: -4.07%

Q: How did the “hERG current change (%, negative = inhibition) at 1uM” value turn out when `Cc1nn(C)cc1C(=O)Nc1ccccc1Br` was run?
A: 9.61%

Q: Which “hERG current change (%, negative = inhibition) at 1uM” value does the source give for `COC(=O)c1ccccc1Nc1cc(C)nc2nc(C)nn12` here?
A: -2.35%

Q: With `O=C(CSc1nnc(-c2cccs2)o1)N1CCc2ccccc21` as the molecule, how does the “hERG current change (%, negative = inhibition) at 1uM” value read?
A: 12.7%

Q: How did the “hERG current change (%, negative = inhibition) at 1uM” value turn out when `O=C(Nc1ccccc1Br)C1CC(=O)N(c2ccc3c(c2)OCCO3)C1` (stereo not shown) was run?
A: 4.45%

Q: For `COc1ccc(CCNC(=O)c2ccccc2OCc2ccccc2)cc1`, which “hERG current change (%, negative = inhibition) at 1uM” value is on record?
A: 7.35%

Q: For `Cc1sc2nc(CN3CCCC3)nc(N3CCC(C(N)=O)CC3)c2c1C`, which “hERG current change (%, negative = inhibition) at 1uM” value is on record?
A: 14.1%

Q: How did the “hERG current change (%, negative = inhibition) at 1uM” value turn out when `NS(=O)(=O)c1ccc(CNC(=O)c2cccc(Oc3ccccc3)c2)cc1` was run?
A: 16.2%

Q: Which “hERG current change (%, negative = inhibition) at 1uM” value does the source give for `CCN(CC)CCC(c1ccc(OC)cc1)c1c(O)cc(OC)cc1OC` (stereo not shown) here?
A: -25.8%

Q: For `Cc1ccc(S(=O)(=O)NCC(c2cccnc2)N2CCc3ccccc32)cc1` (stereo not shown), which “hERG current change (%, negative = inhibition) at 1uM” value is on record?
A: 11.8%

Q: Which “hERG current change (%, negative = inhibition) at 1uM” value does the source give for `O=C(c1ccccc1)c1nn(-c2cccc(Cl)c2)ccc1=O` here?
A: 8.94%

Q: Which “hERG current change (%, negative = inhibition) at 1uM” value does the source give for `CCOC(=O)c1cnc(SC)nc1Oc1cccc(NS(=O)(=O)c2ccc(Cl)cc2)c1` here?
A: -3.09%

Q: For `CC(C)(C)c1ccc(C(=O)N/C(=C\c2cccs2)C(=O)N2CCOCC2)cc1`, which “hERG current change (%, negative = inhibition) at 1uM” value is on record?
A: 10.5%

Q: With `COc1cccc(C(=O)Nc2ccccc2C(=O)NCC2CCCO2)c1` (stereo not shown) as the molecule, how does the “hERG current change (%, negative = inhibition) at 1uM” value read?
A: 15%

Q: How did the “hERG current change (%, negative = inhibition) at 1uM” value turn out when `O=C(CCc1nnc2ccc(NCc3ccccc3)nn12)NC1CCCC1` was run?
A: 6.21%

Q: For `COc1ccc(NC(=O)NNC(=O)COc2ccc([N+](=O)[O-])c(C)c2)cc1OC`, which “hERG current change (%, negative = inhibition) at 1uM” value is on record?
A: 11.8%

Q: `O=c1cc(CN2CCN(S(=O)(=O)/C=C/c3ccccc3)CC2)c2ccc(O)cc2o1` was tested. Which “hERG current change (%, negative = inhibition) at 1uM” value did it give?
A: -29.8%

Q: For `COc1cccc(NC(=O)CN(c2ccccc2OC)S(=O)(=O)c2cccs2)c1`, which “hERG current change (%, negative = inhibition) at 1uM” value is on record?
A: 5.21%

Q: How did the “hERG current change (%, negative = inhibition) at 1uM” value turn out when `COc1ccc(N)cc1NC(=O)CN1CCCC1` was run?
A: 14%

Q: How did the “hERG current change (%, negative = inhibition) at 1uM” value turn out when `CCNC(=O)CCC(=O)Nc1cc(Cl)ccc1C` was run?
A: 24.2%

Q: For `CC(=O)c1c(N(C)C)ccnc1C(F)(F)F`, which “hERG current change (%, negative = inhibition) at 1uM” value is on record?
A: 9.56%

Q: How did the “hERG current change (%, negative = inhibition) at 1uM” value turn out when `COc1ccccc1NC(=S)N(C(C)C)C(C)c1ccccn1` (stereo not shown) was run?
A: 5.36%

Q: How did the “hERG current change (%, negative = inhibition) at 1uM” value turn out when `O=C(Oc1ccc(-c2cnc3ccccc3n2)cc1)c1ccc(Br)o1` was run?
A: 4.99%

Q: Which “hERG current change (%, negative = inhibition) at 1uM” value does the source give for `COc1cc(CN2CCN(C(=O)COc3ccccc3)CC2)cc(OC)c1OC` here?
A: 41.4%

Q: For `CCN(CC)c1c(-c2ccccc2)c2cc(C)ccc2[nH]c1=O`, which “hERG current change (%, negative = inhibition) at 1uM” value is on record?
A: 5.48%

Q: `CCOC(=O)Cn1c2c(c(-c3ccccc3OC)cc1=O)CCCC2` was tested. Which “hERG current change (%, negative = inhibition) at 1uM” value did it give?
A: 8.29%
